To fix the notation:
T1: UNK ZnF1-3 (human, UniProt Q9C0B0 31-174)
T1 sequence: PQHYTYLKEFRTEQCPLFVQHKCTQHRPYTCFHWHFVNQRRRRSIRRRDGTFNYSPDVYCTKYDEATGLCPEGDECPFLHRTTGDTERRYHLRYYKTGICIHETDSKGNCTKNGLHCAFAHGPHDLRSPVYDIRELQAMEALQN

B1: 47740929_47741049_866_CDS_ENSG00000124214_ENST00000360426|human|control|control (ssRNA)
RNA: GGGAGUUCUACAGUCCGACGAUCUUUCUUUUUGAUUCUAGGCUUUACUCGUUCAACUGCAGGCAGGGGCGGUAACUUCUUCAGCUCCUCAAGAACAGCUAUGGCGGCAUUUUUCUUUGAAAUCUUCUUGCUUUUCCCUUCACCCAACAGAGGAUUGAGCAUCA
B2: chr3:176740097:176740098:-_ENSG00000177565_ENST00000430069|hu_mus|hu_hu_hu_mus_True|8_28 (ssRNA)
RNA: GGGAGUUCUACAGUCCGACGAUCUGUUUUGUAUACCACAAAAGGAGGCACUUUCAGUAUCUGCAAAAGGUGUUUAGUCCUAAAACAUACUCACCUAGAGGAUAACUAAAACAGAAUAUCUGUUACACUAGUAUCUAUACUCCACAACAGAGGAUUGAGCAUCA
B3: chr7:32526529:32526530:-_ENSG00000106355_ENST00000409909|hu_hu|FALSE|FALSE (ssRNA)
RNA: GGGAGUUCUACAGUCCGACGAUCAUGCACCUGUUCAAAUCAAAGUUCAUCAUUUUGUUUGGAACAACUUUUGUUUGAGAAUCAAAUGGUCACGUAAAUGACAAAACAAAUAAGCAUAUAAUGACAGAAAAGUAAGUGGCAAAACAACAGAGGAUUGAGCAUCA
B4: chr8:81717444:81717445:+_ENSMUSG00000071064_ENSMUST00000098614|mus_hu|FALSE|FALSE (ssRNA)
RNA: GGGAGUUCUACAGUCCGACGAUCGUAAUGUACACAAACCUUGACAGUAUGAUCAUCUGAACAUAAUAUGAAGAGUUAAAAAAAGGAUAGAAGAAAGAAAGUGCUGAGAACCCUAACUGCAUUACUAUAUGGAAAAAUAAGCUACAACAGAGGAUUGAGCAUCA
B5: chr1:93988920:93988921:+_ENSG00000137942_ENST00000370253|hu_hu|motif|central (ssRNA)
RNA: GGGAGUUCUACAGUCCGACGAUCCAGAUCAUGAGCAUAUCUCAUUAAUUCACCAUACACUCUGUGCGCCAUUUCUUCUGCGGCAACUUCUCGCUGUCCUGCAUAGUCAUUUAACUCAUUAAGGAUAUUAAAAAAGGCUACACACAACAGAGGAUUGAGCAUCA
B6: 79978152_79980979_818_3pUTR_ENSMUSG00000021116_ENSMUST00000071230|mouse|control|control (ssRNA)
RNA: GGGAGUUCUACAGUCCGACGAUCUCAUCUUCAUUCAAAUCUAAACUAUCCAAGAUAGAUGGGUCUGAGACUGCAUGCUUAAAAGCAUCGUAGGCACCGUAUCCAGGUCUCUUGUACUUGUCAUCGAAGACCCAGGCAGUCCUCCAACAGAGGAUUGAGCAUCA
B7: 38546408_38547869_4374_CDS_ENSG00000131747_ENST00000423485|human|control|control (ssRNA)
RNA: GGGAGUUCUACAGUCCGACGAUCAGACUGACUUUUUGCUGCUGUCUUCUUCACUGUCACAUUCUUUUUAGGAACUGGGUUUGUAAUUUCAGUUUCAUCUGGGAAAUGUGUAGCAGGAGGGCUUGAAGACAGUGGUACACUGCCCAACAGAGGAUUGAGCAUCA
B8: 29063523_29063643_132_5pUTR_ENSG00000198492_ENST00000541996|human|control|control (ssRNA)
RNA: GGGAGUUCUACAGUCCGACGAUCCUGGCCGACAUGGCUCUCAGAUCCUCACGGGCGGCGACGGCGGCGAACUCUCCUCAGCGCGGCGGCGGCGGCAGAUGAGCCCCGUCUGCGGGAGCAGGCGGAGGCUUUUGUCCCUGACACCAACAGAGGAUUGAGCAUCA
B9: 76554335_76554455_2282_3pUTR_ENSMUSG00000021051_ENSMUST00000021447|mouse|control|control (ssRNA)
RNA: GGGAGUUCUACAGUCCGACGAUCAGAUUGUUCACAUUUGAAAAUUGUAUCAUACUCUCUGCUAGUGAUAAAUAAGGAACUCCUGAUAAUGGAAUUUUAACAUAGCAAUUUCCCCGACAGAUCUCUGUAGACCUUUUGUUUGUUCAACAGAGGAUUGAGCAUCA
B10: chrX:98862621:98862622:+_ENSMUSG00000034160_ENSMUST00000044475|mus_hu|mus_mus_mus_hu_False|48_48 (ssRNA)
RNA: GGGAGUUCUACAGUCCGACGAUCCUGCAUCUCCUUUAGAGUGUUUCCCAUAUUAGAGUAGGCAUCAGCAAAGGUAGGACUGAUUCGUAUGGCUUCUUUAUAAUGCAUCAGAGCUUCCUGCAGUUUUCCCUGCUGCUGCAGUACCAACAGAGGAUUGAGCAUCA
B11: chr18:43664530:43664531:-_ENSG00000152234_ENST00000398752|hu_mus|FALSE|FALSE (ssRNA)
RNA: GGGAGUUCUACAGUCCGACGAUCAUUGCCCAAGAGGGACUGGUGCUGGCUGAUAACGUGAGACAAGAAAGCAUUCUCAAACUUUGUGAUCUUGCUGGGCUCCAGUUUGUCAAGAUAACCCCGUACACCCGCAUAGAUAACAGCCAACAGAGGAUUGAGCAUCA
B12: chr12:93870747:93870748:+_ENSG00000198015_ENST00000552217|hu_mus|FALSE|FALSE (ssRNA)
RNA: GGGAGUUCUACAGUCCGACGAUCGUCCACCUGGCAAUUGUAGUCAUCCGGAAGAGAAGAGUAUGUGGAUUUGUGACAAGCACUAGACAAAGCUCCGUUUUGGAUUGGAAGUAAAUGCUUCCAGAUAGUUCUGUUUGAUAUCGCCAACAGAGGAUUGAGCAUCA
B13: chr6:74354288:74354289:-_ENSG00000119899_ENST00000355773|hu_hu|FALSE|FALSE (ssRNA)
RNA: GGGAGUUCUACAGUCCGACGAUCACUCAGAUUCACACGUAAUGCAUACACAAUGAAGAAACCAAAAAAGGCCAAAAUUGCUAAGUUGUAACGAGCAGAGCAGCACACUGGAGCGGCUUCGGCCCGUGGGGCGCCCGGUAGAAGCAACAGAGGAUUGAGCAUCA
B14: 140258100_140262179_621_3pUTR_ENSG00000164134_ENST00000296543|human|control|control (ssRNA)
RNA: GGGAGUUCUACAGUCCGACGAUCGGUCCCUUAAGAUUUGAAGAUUGUCUUUAUCCCAUUUUAGUGCAUUUCUGUAACACUUAAUGGCUUCAUCAUACUUCUUGUCUGACCUCUGAAGAAGGCCAUAAACGUGCCAACACACAUCAACAGAGGAUUGAGCAUCA
B15: chr12:16048344:16048345:+_ENSG00000023734_ENST00000419869|hu_hu|hu_hu_hu_mus_True|1_1 (ssRNA)
RNA: GGGAGUUCUACAGUCCGACGAUCAGAUCGUCCAUAAGUAAUAACCAAAAUCUCUCCUUCAGGAAUAUACUCCAUGCUGCUAACAGACAUAUUAAAAUUCAGAGAUUUCACUUCUGUCAUUGUGGCAUGAUCCCAGAGUCGAACCAACAGAGGAUUGAGCAUCA
B16: 87816543_87856848_158_5pUTR_ENSMUSG00000022019_ENSMUST00000168275|mouse|control|control (ssRNA)
RNA: GGGAGUUCUACAGUCCGACGAUCAAAGGUACCAACCCGCCUGGGACAACGCGGCGCCGGACACCUCGGCCAUGGUUAGCUGUUCAGGCUCGGGGACGGCGGGGGUCUGAACUGAGGGUGGGGGACGGGCCUCCUACUGGAGACCAACAGAGGAUUGAGCAUCA
B17: chr17:57761033:57761034:+_ENSG00000141367_ENST00000269122|hu_hu|FALSE|FALSE (ssRNA)
RNA: GGGAGUUCUACAGUCCGACGAUCAUCCAACCGUGGAGACAGCACCAUCAGCAAAUCAUUUAACAACAGAGGCUUGAAUUCUAAGUAGAACUGUAUUGCUCUGUAGUAUAGUUCCACAUUGGCAACCUUGGUAAUGAUAUCUUUCAACAGAGGAUUGAGCAUCA
B18: chr2:39278355:39278356:-_ENSG00000115904_ENST00000402219|hu_hu|FALSE|FALSE (ssRNA)
RNA: GGGAGUUCUACAGUCCGACGAUCGCAGCUUCCUACUAGUGGAUGGGGACUGCCUUCAUCUGUCAUUUCUACUGUAUCUUCUAUAUGGCCCAGUAACUUUACACUAAGUUCAUGUAUAUCUACUAUGCGACUAAAUAUAUUUUCCAACAGAGGAUUGAGCAUCA
B19: 6292883_6306143_117_3pUTR_ENSMUSG00000028249_ENSMUST00000103008|mouse|control|control (ssRNA)
RNA: GGGAGUUCUACAGUCCGACGAUCUGGCGGGAUUGGCAGAAUAAGCAGUUUGAGCCUGAAUUACUUUGUCUACCUUCAAAUCUUCAAGAGAUGGAUAAAGAGACAUUUCUGCAGAUAUUUUCUGCCCCGAGGACCGCGCCGCUCCAACAGAGGAUUGAGCAUCA
B20: chr9:19447105:19447106:+_ENSMUSG00000057551_ENSMUST00000079042|mus_mus|FALSE|FALSE (ssRNA)
RNA: GGGAGUUCUACAGUCCGACGAUCUAGGUGUGAGAUGAGGCGGGGUUUGCCAACCUGAUAACCCAGUGAACUUAGAUUGCUAUAAUUCUCCAGCAUUACAUCUUUGUACAGUUUUCUCUGGGAAGAAUCUAGCAGGGGCCACUCCAACAGAGGAUUGAGCAUCA
B21: chrX:100668114:100668115:+_ENSG00000126945_ENST00000316594|hu_hu|FALSE|FALSE (ssRNA)
RNA: GGGAGUUCUACAGUCCGACGAUCUCCCAUCAUUUGGCUACCAUAAGCGCCACCACUUGCCCCUGCUGUAGAAUUCAAAAAAAGUUCUACAUAGCUGUGAUCGUAAGCACCCCCACUUGUUCCUGCAGUAGAAUUUAAGAAGAGCAACAGAGGAUUGAGCAUCA
B22: chrX:71025408:71025409:-_ENSMUSG00000002010_ENSMUST00000052761|mus_mus|FALSE|FALSE (ssRNA)
RNA: GGGAGUUCUACAGUCCGACGAUCGAAUACUGCAUACACAUGGCCAUAGUUGGCCCCAGCCACAAGGCCUGGGCCUCCAACUAGCCCUGCACAGACGUUGUUGACAAUGUUACCAUAGAGAUUAGGCAUCACCAUGACAUCAAACAACAGAGGAUUGAGCAUCA

Consider 22 molecules from article PMC12136788.

The other results are listed elsewhere or left out.

In this experiment the target is T1, UNK ZnF1-3. The experiment in a line: nsRBNS (natural sequence RNA bind-n-seq); RBNS binding buffer (assumed for nsRBNS): 25 mM Tris pH 7.5, 150 mM KCl, 3 mM MgCl2, 0.01% Triton X-100, 500 ug/ml BSA, 20 U/ml SUPERase-In, 4 C; UNK is unkempt and MSI1 is Musashi-1; names of the RNAs are library labels; protein concentration not given here; high values mean tight binding.
With B1, the binding signal was found to be 0.602 enrichment R.
B2: the binding signal was determined as 0.651 enrichment R.
In turn, B3 registered a binding signal of 1.53 enrichment R.
B4 gave a binding signal of 1.79 enrichment R.
With B5, the binding signal was determined as 1.31 enrichment R.
In the case of B6, the binding signal was 0.679 enrichment R.
Molecule B7 displayed a binding signal of 0.387 enrichment R.
On to B8, for which the binding signal was determined as 0.814 enrichment R.
Regarding B9, the binding signal came to 0.99 enrichment R.
B10 yielded a binding signal of 1.37 enrichment R.
Under B11 stands 1.4 enrichment R; under B12, 1.2 enrichment R; under B13, 1.33 enrichment R.
Consider B14, for which the binding signal came out at 0.526 enrichment R.
Consider B15, for which the binding signal worked out at 1.2 enrichment R.
Regarding B16, the binding signal is 1.18 enrichment R.
As to B17, the binding signal was determined as 2.13 enrichment R.
Under B18 stands 0.626 enrichment R; under B19, 1.67 enrichment R.
The molecule B20 had a binding signal of 0.735 enrichment R.
B21: the binding signal worked out at 2 enrichment R.
As for B22, the binding signal stood at 1.09 enrichment R.
